{"source": "paper PMC4336329", "about": "(PLoS ONE, 2015)", "note": "Out of some 310,000 compounds screened, about 2,200 (0.71%) showed an effect of 50% or more. The effect is printed as a negative number. This is one part of the list."}
{"biological_target": "human ether-à-go-go-related gene (hERG) potassium channel (human, UniProt Q12809)", "sequence (Q12809 whole entry, looked up)": "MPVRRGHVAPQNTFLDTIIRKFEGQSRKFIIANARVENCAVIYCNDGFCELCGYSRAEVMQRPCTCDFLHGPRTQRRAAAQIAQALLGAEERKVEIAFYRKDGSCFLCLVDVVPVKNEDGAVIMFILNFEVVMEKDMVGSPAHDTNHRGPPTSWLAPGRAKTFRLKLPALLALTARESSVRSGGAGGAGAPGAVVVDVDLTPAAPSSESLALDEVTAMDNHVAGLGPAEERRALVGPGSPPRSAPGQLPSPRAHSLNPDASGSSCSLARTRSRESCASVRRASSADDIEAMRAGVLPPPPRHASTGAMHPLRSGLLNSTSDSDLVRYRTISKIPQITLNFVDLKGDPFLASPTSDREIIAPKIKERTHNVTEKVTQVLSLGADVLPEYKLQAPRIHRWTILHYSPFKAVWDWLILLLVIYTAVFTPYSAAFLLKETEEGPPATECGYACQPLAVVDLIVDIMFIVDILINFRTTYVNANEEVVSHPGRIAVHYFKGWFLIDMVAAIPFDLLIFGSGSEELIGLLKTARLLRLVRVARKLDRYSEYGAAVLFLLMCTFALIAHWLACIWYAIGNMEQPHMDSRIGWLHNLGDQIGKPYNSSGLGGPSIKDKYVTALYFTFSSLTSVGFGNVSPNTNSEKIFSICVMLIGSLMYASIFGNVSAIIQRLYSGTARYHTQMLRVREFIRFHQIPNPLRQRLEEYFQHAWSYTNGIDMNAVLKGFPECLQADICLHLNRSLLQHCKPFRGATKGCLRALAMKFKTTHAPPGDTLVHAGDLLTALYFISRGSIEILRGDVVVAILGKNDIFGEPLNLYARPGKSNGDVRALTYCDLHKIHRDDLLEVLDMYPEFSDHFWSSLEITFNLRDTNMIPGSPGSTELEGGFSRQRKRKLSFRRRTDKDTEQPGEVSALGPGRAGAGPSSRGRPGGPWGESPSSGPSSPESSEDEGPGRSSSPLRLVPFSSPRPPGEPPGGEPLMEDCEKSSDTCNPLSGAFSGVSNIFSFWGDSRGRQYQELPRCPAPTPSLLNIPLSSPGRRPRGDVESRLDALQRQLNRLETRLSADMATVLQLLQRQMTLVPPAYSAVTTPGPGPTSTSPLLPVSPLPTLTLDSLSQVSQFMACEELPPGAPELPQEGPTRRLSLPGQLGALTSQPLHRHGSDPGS", "test": "primary screen, population patch clamp on CHO cells stably expressing hERG", "units": {"hERG current change (%, negative = inhibition) at 1uM": "%"}}
{"smiles": "Cc1c(OCC(=O)NCc2ccccn2)ccc2c(-c3ccccc3)cc(=O)oc12", "hERG current change (%, negative = inhibition) at 1uM": 15}
{"smiles": "Cc1ccc(NCc2ccc(O)c3ncccc23)cc1C", "hERG current change (%, negative = inhibition) at 1uM": 16.1}
{"smiles": "Cc1ccc(C(C(=O)NC(C)(C)C)N(C(=O)CCC(=O)Nc2ccccn2)c2ccccc2F)cc1", "note": "(stereo not shown)", "hERG current change (%, negative = inhibition) at 1uM": -9.88}
{"smiles": "O=C(NCCc1ccccc1)C1CCN(C(=O)NCc2ccccc2)CC1", "hERG current change (%, negative = inhibition) at 1uM": 18}
{"smiles": "COc1ccc(NC(=O)CS(=O)(=O)c2ccccc2Cl)cc1", "hERG current change (%, negative = inhibition) at 1uM": 5.25}
{"smiles": "COc1ccccc1/C=N/Nc1nccnc1Cl", "hERG current change (%, negative = inhibition) at 1uM": -0.808}
{"smiles": "N#Cc1cc2cc3c(cc2nc1SCC(=O)OC1CCCCC1)OCO3", "hERG current change (%, negative = inhibition) at 1uM": 9.04}
{"smiles": "CCOc1ccc(Cl)cc1CSc1n[nH]c(C)n1", "hERG current change (%, negative = inhibition) at 1uM": 6.74}
{"smiles": "Cc1cccc(NC(=S)N/C(=N/S(=O)(=O)c2ccccc2)c2ccccc2)c1", "hERG current change (%, negative = inhibition) at 1uM": 12.3}
{"smiles": "N#Cc1ccc(N2CCOCC2)c([N+](=O)[O-])c1", "hERG current change (%, negative = inhibition) at 1uM": 3.4}
{"smiles": "Cc1cccc2c(C(=O)n3cccn3)cc(-c3ccccc3Cl)nc12", "hERG current change (%, negative = inhibition) at 1uM": 12.7}
{"smiles": "O=C(O)c1nn(-c2ccccc2-c2n[nH]c(=O)[nH]c2=O)c(=O)[nH]c1=O", "hERG current change (%, negative = inhibition) at 1uM": 11.5}
{"smiles": "CC(=O)c1ccc(NC(=S)NNC(=O)c2ccncc2)cc1", "hERG current change (%, negative = inhibition) at 1uM": 6.86}
{"smiles": "Cc1sc2nc(CN3CCOCC3)nc(NS(=O)(=O)c3ccc4c(c3)OCCO4)c2c1C", "hERG current change (%, negative = inhibition) at 1uM": 13.1}
{"smiles": "N#Cc1c(Cl)nc(-c2ccncc2)nc1-c1ccccc1", "hERG current change (%, negative = inhibition) at 1uM": 13.1}
{"smiles": "CC(=O)C1=C(C)OC(N)=C(C#N)C1c1ccncc1", "note": "(stereo not shown)", "hERG current change (%, negative = inhibition) at 1uM": 9.29}
{"smiles": "COC(=O)c1cccc(NC(=O)COc2cccc([N+](=O)[O-])c2)c1", "hERG current change (%, negative = inhibition) at 1uM": 18}
{"smiles": "COc1cc(C(=O)O)cc(NC(=O)c2ccco2)c1OC", "hERG current change (%, negative = inhibition) at 1uM": 6.25}
{"smiles": "O=C(CN1CCSc2ccccc21)NCCCc1ccccc1", "hERG current change (%, negative = inhibition) at 1uM": 1.91}
{"smiles": "O=C(Nc1ccc([N+](=O)[O-])cc1)C1CC1(c1ccccc1)c1ccccc1", "note": "(stereo not shown)", "hERG current change (%, negative = inhibition) at 1uM": 4.79}
{"smiles": "Cc1ccc(N(C)S(=O)(=O)c2cccc(C(=O)Nc3ccc(N4CCOCC4)cc3)c2)cc1", "hERG current change (%, negative = inhibition) at 1uM": 4.42}
{"smiles": "O=C(C#Cc1ccccc1)Nc1ccc(F)cc1", "hERG current change (%, negative = inhibition) at 1uM": 16}
{"smiles": "N#CCCSc1ccccc1NC(=O)c1cc(=O)c2ccccc2o1", "hERG current change (%, negative = inhibition) at 1uM": -0.601}
{"smiles": "CSc1nnc(-c2ccc(NC(N)=S)cc2)o1", "hERG current change (%, negative = inhibition) at 1uM": 7.15}
{"smiles": "O=C(COC(=O)C1CC1)Nc1ccc2c(c1)OCO2", "hERG current change (%, negative = inhibition) at 1uM": 10.9}
{"smiles": "COc1ccc(N2C(=NC(=O)C3CCCCC3)SC3CS(=O)(=O)CC32)cc1", "note": "(stereo not shown)", "hERG current change (%, negative = inhibition) at 1uM": 13.6}
{"smiles": "O=C(CSc1ncccn1)N1CCN(C(c2ccccc2)c2ccccc2)CC1", "hERG current change (%, negative = inhibition) at 1uM": 4.43}
{"smiles": "CC1CSc2nnc(CCc3ccccc3)n21", "note": "(stereo not shown)", "hERG current change (%, negative = inhibition) at 1uM": 9.67}
{"smiles": "Cc1ccc(O)c(C2=NNC(O)(C(F)(F)F)C2)c1", "note": "(stereo not shown)", "hERG current change (%, negative = inhibition) at 1uM": 2.87}
{"smiles": "Cc1c(Br)c(C(F)(F)F)nn1CC(=O)NCc1ccco1", "hERG current change (%, negative = inhibition) at 1uM": 7.36}
{"smiles": "Cc1noc(C)c1CSc1nnc(C)c(=O)[nH]1", "hERG current change (%, negative = inhibition) at 1uM": 8.26}
{"smiles": "Fc1cccc(CSc2ccc3nnc(-c4cccnc4)n3n2)c1", "hERG current change (%, negative = inhibition) at 1uM": -0.141}
{"smiles": "Cc1ccc2nc(Nc3nc(-c4ccccc4)cc(=O)[nH]3)nc(C)c2c1", "hERG current change (%, negative = inhibition) at 1uM": 12.9}
{"smiles": "CCOC(=O)C1=C(CC)Nc2ccccc2N=C1NC(=O)c1cc(S(=O)(=O)N(C)C)ccc1Cl", "hERG current change (%, negative = inhibition) at 1uM": 14.2}
{"smiles": "CCOC(=O)Cc1c(C)nc2c(-c3ccc(OC)cc3)c(C)nn2c1C", "hERG current change (%, negative = inhibition) at 1uM": 8.96}
{"smiles": "Cc1cc(C)c2nc(-c3ccccn3)cc(C(=O)NCc3cc(C)n(C)n3)c2c1", "hERG current change (%, negative = inhibition) at 1uM": 0.286}
{"smiles": "CC1CN(Cc2nc3c(c(=O)n(C)c(=O)n3C)n2CCCO)CC(C)O1", "note": "(stereo not shown)", "hERG current change (%, negative = inhibition) at 1uM": 4.86}
{"smiles": "Cc1cc(C(F)(F)F)nn1CC(=O)N1CCCCC1C", "note": "(stereo not shown)", "hERG current change (%, negative = inhibition) at 1uM": 6.75}
{"smiles": "CN(C)C(=O)CN(c1ccc2c(c1)OCO2)S(C)(=O)=O", "hERG current change (%, negative = inhibition) at 1uM": 14.9}
{"smiles": "CC(C)C(OC(=O)c1cccs1)C(=O)NCCc1ccccc1", "note": "(stereo not shown)", "hERG current change (%, negative = inhibition) at 1uM": 12.6}
{"smiles": "CCN1CCN(C(=O)/C=C/c2c(F)cccc2Cl)CC1", "hERG current change (%, negative = inhibition) at 1uM": 2.69}
{"smiles": "O=C(N/N=C/c1ccccc1F)c1ccc(COc2ccccc2Cl)o1", "hERG current change (%, negative = inhibition) at 1uM": -0.706}
{"smiles": "Cn1c(SCC(=O)c2ccc(F)cc2)nnc1-c1cccnc1", "hERG current change (%, negative = inhibition) at 1uM": 4.68}
{"smiles": "Cc1nn(Cc2cccc(F)c2)c(C)c1NC(=O)c1c(Cl)cnn1C", "hERG current change (%, negative = inhibition) at 1uM": 15.3}
{"smiles": "CN1CCN(C(=O)/C=C/c2ccc3c(c2)OCO3)CC1", "hERG current change (%, negative = inhibition) at 1uM": 7.04}
{"smiles": "O=C(O)c1sccc1S(=O)(=O)N1CCN(c2ccc(C(F)(F)F)cn2)CC1", "hERG current change (%, negative = inhibition) at 1uM": 6.39}
